# The list shows a part of the results. These are noisy estimates, calculated here from bound and input reads.
# Target: T1, Pho4 (S. cerevisiae) (UniProt P07270)
# T1 sequence: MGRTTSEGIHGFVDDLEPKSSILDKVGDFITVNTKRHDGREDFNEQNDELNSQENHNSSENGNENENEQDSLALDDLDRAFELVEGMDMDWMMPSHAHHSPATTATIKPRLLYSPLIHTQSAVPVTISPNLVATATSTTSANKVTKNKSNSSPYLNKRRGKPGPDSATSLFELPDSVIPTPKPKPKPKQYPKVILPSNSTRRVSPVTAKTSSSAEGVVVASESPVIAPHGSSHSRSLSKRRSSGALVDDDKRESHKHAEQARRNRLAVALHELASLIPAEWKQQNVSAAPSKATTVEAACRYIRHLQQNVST
# Experiment: relative binding free energy (BET-seq); higher = weaker binding
# Settings: reference: library average
row,Sequence,relative binding free energy [kcal/mol]
1,GTCAGCACGTGGGCGG,-0.22
2,TAGTGCACGTGTCATG,0.02
3,GTTTACACGTGGATCA,0.28
4,TTGTTCACGTGAATCT,0.47
5,GCTTGCACGTGAGTAG,0.34
6,CAAGGCACGTGGGGGA,-0.23
7,AGGGACACGTGGAGGG,-0.02
8,TGCCTCACGTGGATGT,0.3
9,AAGGTCACGTGTGTAG,0.15
10,TGATACACGTGGTAGA,-0.05
11,TGTGGCACGTGGTTCT,-0.19
12,AAGGTCACGTGCCGGG,0.05
13,TTTTGCACGTGATGGT,0.2
14,TCTTGCACGTGAGGAG,0.27
15,AGGGGCACGTGGCGCC,-0.26
16,AGATTCACGTGGTGAA,0.3
17,TTTTGCACGTGGTCAA,-0.14
18,ATAGTCACGTGAGATG,0.24
19,GGGAACACGTGATGAG,0.39
20,TATTACACGTGTAGAG,-0.1
21,GTTTTCACGTGAGGCT,0.4
22,TTTGCCACGTGCTAGT,-0.14
23,TACGGCACGTGATGGT,-0.09
24,GTGGGCACGTGGCAGA,-0.14
25,GTTGTCACGTGCTTGA,0.18
26,GGTGTCACGTGTGTCA,0.04

row,Sequence,relative binding free energy [kcal/mol]
1,CGGGGCACGTGACGTT,-0.08
2,GGCTACACGTGATAGT,0.46
3,ACGTACACGTGTTGTA,0.05
4,TTCGGCACGTGGTTAG,-0.04
5,TGTTTCACGTGTAGTG,0.38
6,TGTATCACGTGGACGG,0.36
7,GGGATCACGTGGCGGA,0.24
8,CGGTGCACGTGGTAGC,0
9,AAATGCACGTGCTTTT,0.07
10,GTCTACACGTGGCGTT,0.14
11,TTGTTCACGTGTCAGG,0.3
12,TTTGACACGTGTTGGA,0.12
13,TGTAACACGTGATGGT,0.1
14,TGCTTCACGTGCGGTG,0.2
15,TGAGTCACGTGGTAGG,0.02
16,ATTGGCACGTGTGAAT,0.01
17,AATTTCACGTGAGGAT,0.38
18,TGGGACACGTGGCGAG,-0.12
19,TTAGGCACGTGAGGCT,0.12
20,GTGGACACGTGGCATG,-0.01
21,AGAGGCACGTGGTCGT,-0.09
22,TTATTCACGTGTCAGA,0.31
23,TGTTTCACGTGAGTGT,0.3
24,GTTATCACGTGACTGG,0.35
25,GGGGCCACGTGATCGT,0.05
26,GACGTCACGTGAGGGT,0.14

row,Sequence,relative binding free energy [kcal/mol]
1,CGTTTCACGTGTGGTA,0.52
2,CGCAACACGTGGGGTT,-0.08
3,TGTTGCACGTGGCTTC,0.02
4,ATCGGCACGTGCGGTT,-0.06
5,GAGAGCACGTGGGTTG,-0.15
6,TGGAGCACGTGGCTTT,-0.19
7,TAAGTCACGTGGGTCG,0.03
8,TATGTCACGTGAGCTA,0.24
9,TTTGGCACGTGGTAGT,-0.18
10,GATGTCACGTGAGTAT,0.34
11,GAGTACACGTGGAGCG,0.18
12,AGGGCCACGTGCGGGA,-0.16
13,AGTTTCACGTGAAGGG,0.46
14,AACGGCACGTGTCGGT,-0.14
15,GGTGACACGTGAGGGA,0.27
16,GGTTTCACGTGGTCAT,0.23
17,GTTCGCACGTGTGATT,0.13
18,TTGTGCACGTGCTGGG,-0.03
19,TTTTCCACGTGGGGTG,-0.05
20,TGCGACACGTGAGTGG,0.29
21,GGCGCCACGTGTGTAG,0.01
22,GTATGCACGTGGGTAA,-0.12
23,GTTCGCACGTGGCTGG,-0.17
24,TACTACACGTGTTGGG,0.08
25,TGGTCCACGTGCGTGG,-0.1
26,GTTTACACGTGATCGT,0.04

row,Sequence,relative binding free energy [kcal/mol]
1,AGGAACACGTGTAAGT,0.22
2,TGTTACACGTGTAATG,0.16
3,TATAGCACGTGTCAGT,-0.11
4,TGGGTCACGTGAGAAT,0.5
5,TGTTACACGTGGGTTG,-0.01
6,TCTTTCACGTGTTGCT,0.33
7,TGTCGCACGTGGGGAC,-0.26
8,TTAAGCACGTGAGGTT,0.2
9,TGGCGCACGTGATGAG,0.08
10,CTGTGCACGTGTGGGG,-0.03
11,ATTGGCACGTGATGTG,-0.02
12,TTGTGCACGTGGTTTC,-0.06
13,GGAGTCACGTGGGTGC,0.09
14,AGGGCCACGTGAATTG,0.3
15,TTAGTCACGTGTCAGA,0.12
16,GGCTACACGTGAGGGC,0.35
17,TATTACACGTGGGCTT,0.06
18,TTTGCCACGTGTGAGC,0.07
19,CGGGCCACGTGTTTTT,0.02
20,TCCGTCACGTGTTTGT,-0.02
21,GTAGGCACGTGGCGCT,-0.2
22,TACTACACGTGTTGTT,0.09
23,TATGGCACGTGACGTA,-0.1
24,CATGTCACGTGTAAGG,0.23
25,ATTGCCACGTGGGGGG,-0.22
26,ATGGTCACGTGATTAG,0.19

row,Sequence,relative binding free energy [kcal/mol]
1,ATCTACACGTGTATTT,0.11
2,GTTGACACGTGTTTAT,0.15
3,GTAGGCACGTGGGATC,-0.12
4,TTGTACACGTGGGCGT,-0.07
5,GTGAACACGTGAGGGC,0.25
6,GTGTCCACGTGGGCAT,-0.09
7,GAGGCCACGTGTCGGG,-0.04
8,AGTTTCACGTGTGTAG,0.24
9,TTGGTCACGTGCAAGA,0.19
10,AGGCTCACGTGAGGGT,0.32
11,CGTATCACGTGAGATG,0.27
12,TTGCACACGTGGTTGA,0.01
13,GAGGGCACGTGAGTAT,0.23
14,AGTGTCACGTGTAGTA,0.06
15,TTTGACACGTGTTTAT,0.04
16,AGGTTCACGTGGTAAC,0.31
17,GAAATCACGTGCAGGG,0.32
18,GGCGGCACGTGCTGTT,-0.13
19,GATTGCACGTGGAGAT,0.15
20,ACTGGCACGTGGGTTG,-0.26
21,ATTCGCACGTGAGAGT,0.19
22,ATGGACACGTGCGGGT,-0.02
23,GAACACACGTGTTGGG,0.06
24,GATGCCACGTGTTGTG,-0.02
25,GCTGTCACGTGGCTGG,0.14
26,GGGTTCACGTGGTGCT,0.24

row,Sequence,relative binding free energy [kcal/mol]
1,AGAGTCACGTGCAGTG,0.17
2,GCGTTCACGTGTGTAA,0.25
3,GTTATCACGTGGTTGT,0.11
4,TTAAGCACGTGAAGCT,0.11
5,GGCATCACGTGGGGCA,0.16
6,GTGTACACGTGCTATG,0.07
7,AGGGGCACGTGGGTAC,-0.26
8,GGGTTCACGTGTAGGC,0.23
9,GGTCTCACGTGTTAAG,0.29
10,CTTATCACGTGGTGCT,0.13
11,AGAGGCACGTGGTCGA,-0.19
12,ATAGTCACGTGTTGCT,0.01
13,ATATTCACGTGTGAAT,0.27
14,GGGCGCACGTGGCGTT,-0.06
15,GTGATCACGTGTAGCT,0.22
16,TTTTTCACGTGTGCGT,0.37
17,GTTTTCACGTGGTACG,0.24
18,GTTTTCACGTGATGAT,0.42
19,TTTAGCACGTGTGAAA,0.08
20,TTTACCACGTGGTTGA,-0.05
21,GTGTGCACGTGGTCGA,-0.07
22,TCATTCACGTGTGTTT,0.25
23,TTGACCACGTGGTTAG,0.05
24,CGGGGCACGTGGAAGA,-0.12
25,GAATGCACGTGTTGGA,-0.02
26,AAACTCACGTGTGTTA,0.35

row,Sequence,relative binding free energy [kcal/mol]
1,GGTTTCACGTGTGTCT,0.2
2,TCTTGCACGTGTGCGT,0.07
3,GGTGGCACGTGCGTGC,-0.09
4,TAAAGCACGTGGGGCG,-0.34
5,AGAGTCACGTGATGTA,0
6,GGGCGCACGTGCAGGG,0
7,TCGGACACGTGTTGAG,0.09
8,CTTGGCACGTGAGCTA,0.28
9,GGAGGCACGTGAATGT,0.3
10,TGTTGCACGTGTGGTA,-0.01
11,AGGGTCACGTGGACTA,0.21
12,TTTTACACGTGATGTC,0.22
13,ATAATCACGTGGTGCG,0.06
14,GTTTACACGTGGGTCA,0.06
15,AGAGTCACGTGGGAAT,0.09
16,CGGTTCACGTGTGGAT,0.28
17,TTAAGCACGTGCTGGA,-0.2
18,GGCGACACGTGGGGGT,-0.11
19,GTGGACACGTGATCGT,0.13
20,GTTGTCACGTGGATCG,0.25
21,AATATCACGTGGTAGA,0.08
22,TGGTACACGTGAGAGG,0.26
23,GATGACACGTGGTAGA,0.03
24,TCTTGCACGTGGTGTG,-0.1
25,GATGCCACGTGATGGG,0.06
26,AGTGGCACGTGAGACT,0.11

row,Sequence,relative binding free energy [kcal/mol]
1,TTAATCACGTGTGTTC,0.09
2,TAGATCACGTGATGGG,0.25
3,ATGCTCACGTGTAAGT,0.42
4,TGGCGCACGTGGTGGA,-0.13
5,GTGATCACGTGATTGG,0.44
6,GATGGCACGTGGAGTA,-0.1
7,CTTGACACGTGGTTTT,0.01
8,TATGCCACGTGTGATT,0.02
9,CTTGACACGTGTGTAT,0.18
10,AACGTCACGTGGGGTT,-0.04
11,ATTGCCACGTGGTACG,-0.01
12,GGTGTCACGTGAAATA,0.45
13,TGTGACACGTGGTCGA,-0.13
14,TTAGGCACGTGGCGGG,-0.13
15,GACTACACGTGGGTTG,-0.04
16,CTAGGCACGTGGAGTG,-0.2
17,TTCTTCACGTGGTGGG,0.36
18,TGTAGCACGTGCATTA,-0.08
19,TTGTGCACGTGGAGCT,-0.01
20,GTGTCCACGTGAGTGG,0.2
21,TATTACACGTGAGGCG,0.3
22,GGGAGCACGTGGATAT,-0.14
23,TAAAGCACGTGTTGCG,-0.01
24,CGTTACACGTGGGTGG,-0.07
25,CGAGGCACGTGGCGAG,-0.14
26,AGCTTCACGTGAGTTT,0.22

row,Sequence,relative binding free energy [kcal/mol]
1,GGGGGCACGTGTATTG,-0.08
2,ATTAGCACGTGGGGAT,-0.24
3,TGTACCACGTGTTGGA,-0.04
4,GTGCTCACGTGTGCAG,0.33
5,GATGACACGTGGGTTT,0.04
6,CGTCGCACGTGTTCGT,0.1
7,GGAACCACGTGGGAAG,0.08
8,TATGTCACGTGTATAG,0.07
9,AGATGCACGTGATCGG,-0.04
10,CTTTGCACGTGTTGAA,0.13
11,ATGAGCACGTGATTTT,0.04
12,TCGGGCACGTGAACTG,0.27
13,GGGGTCACGTGCTGCG,0.05
14,TATGTCACGTGCTATG,-0.03
15,AGTGGCACGTGAGTGT,0.11
16,ATAGCCACGTGTTGGG,-0.21
17,GTTGACACGTGTGTCG,0.13
18,GAGGGCACGTGCGGCA,-0.18
19,AGGACCACGTGTGTGT,-0.05
20,TTTTTCACGTGTCTGC,0.28
21,TATATCACGTGGAATA,0.22
22,TGTCTCACGTGATAAG,0.42

# Source: the BET-seq Pho4 binding data (Le et al. 2018)
